Source: the supplement of paper PMC4604168 (melanoma cell lines)
The list shows a part of the results. Many values rest on one well or one pass, so single values are uncertain.

Legend:
Assay in all cases: cell count relative to DMSO control; melanoma cells; higher = more viable cells
Details in all cases: library dose: standard library concentration; 72 h
SkMel28 = system: SkMel28
SkMel2 = system: SkMel2
SkMel30 = system: SkMel30
SkMel5 = system: SkMel5
UACC257 = system: UACC257
UACC62 = system: UACC62
WM115 = system: WM115
WM1716 = system: WM1716
WM1745 = system: WM1745
WM3526 = system: WM3526
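Note: cells treated in 1,536-well plates, then fixed and DAPI-stained, with nuclei counted from automated high-throughput microscope images.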

SMILES	cell count (SkMel28)	cell count (SkMel2)	cell count (SkMel30)	cell count (SkMel5)	cell count (UACC257)	cell count (UACC62)	cell count (WM115)	cell count (WM1716)	cell count (WM1745)	cell count (WM3526)
CN1CCN(c2ccc3nc(-c4c(N)c5c(F)cccc5[nH]c4=O)[nH]c3c2)CC1 [Dovitinib] + C=CCn1c(=O)c2cnc(Nc3ccc(N4CCN(C)CC4)cc3)nc2n1-c1cccc(C(C)(C)O)n1 [MK1775] (first compound 0.5 µM, partner dose 0.1 µM)	48.6%	55.1%	66.7%	41.5%	60.8%	60.3%	50.6%	69.3%	46.4%	61.2%
C=CCNC1=C2C[C@@H](C)C[C@H](OC)[C@H](O)[C@@H](C)/C=C(\C)[C@H](OC(N)=O)[C@@H](OC)/C=C\C=C(/C)C(=O)NC(=CC1=O)C2=O [Tanespimycin] + C[C@@H]1CCN(C(=O)CC#N)C[C@@H]1N(C)c1ncnc2[nH]ccc12 [CP690550] (first compound 0.01 µM, partner dose 5 µM)	87.4%	92.7%	106%	85.4%	104%	42.8%	29.8%	85.2%	67.5%	93.6%
CN1CCN(c2ccc3nc(-c4c(N)c5c(F)cccc5[nH]c4=O)[nH]c3c2)CC1 [Dovitinib] + Nc1ncn([C@H]2C[C@H](O)[C@@H](CO)O2)c(=O)n1 [decitabine] (first compound 0.5 µM, partner dose 0.5 µM)	53.4%	56.5%	49.7%	61.3%	69.9%	49.1%	47.7%	55.3%	72.6%	64%
C=CCNC1=C2C[C@@H](C)C[C@H](OC)[C@H](O)[C@@H](C)/C=C(\C)[C@H](OC(N)=O)[C@@H](OC)/C=C\C=C(/C)C(=O)NC(=CC1=O)C2=O [Tanespimycin] + Cn1nnc2c(C(N)=O)ncn2c1=O [temozolomide] (first compound 0.01 µM, partner dose 10 µM)	38.6%	98%	76.7%	68.7%	98.9%	62%	27.5%	58.6%	62.9%	85.7%
CN1CCN(c2ccc3nc(-c4c(N)c5c(F)cccc5[nH]c4=O)[nH]c3c2)CC1 [Dovitinib] + Cn1c(Nc2ccc(C(F)(F)F)cc2)nc2cc(Oc3ccnc(-c4ncc(C(F)(F)F)[nH]4)c3)ccc21 [CHIR265] (first compound 0.5 µM, partner dose 0.4 µM)	26.7%	44%	64.9%	37.1%	60.5%	57.7%	43.1%	66.3%	52%	40.4%
C[C@@H](Oc1cc(-c2cnn(C3CCNCC3)c2)cnc1N)c1c(Cl)ccc(F)c1Cl [Crizotinib] + OCCn1cc(-c2cnc3nnn(Cc4ccc5ncccc5c4)c3n2)cn1 [PF04217903] (first compound 1 µM, partner dose 5 µM)	59.8%	71.8%	66.5%	65.6%	72.3%	79.5%	37.7%	57.5%	33.7%	75.1%
C[C@@H](Oc1cc(-c2cnn(C3CCNCC3)c2)cnc1N)c1c(Cl)ccc(F)c1Cl [Crizotinib] + Cn1nnc2c(C(N)=O)ncn2c1=O [temozolomide] (first compound 1 µM, partner dose 10 µM)	42.8%	79.6%	75%	88.5%	98%	51.3%	66.2%	52%	58.8%	75%
CN1CCN(c2ccc3nc(-c4c(N)c5c(F)cccc5[nH]c4=O)[nH]c3c2)CC1 [Dovitinib] + C#Cc1cccc(Nc2ncnc3cc(OCCOC)c(OCCOC)cc23)c1 [erlotinib] (first compound 0.5 µM, partner dose 4 µM)	38.5%	55.1%	54.8%	75.3%	88.4%	50.3%	50.8%	61.5%	62.8%	61.5%
CN1CCN(c2ccc3nc(-c4c(N)c5c(F)cccc5[nH]c4=O)[nH]c3c2)CC1 [Dovitinib] + NCC(=O)Nc1ccc(-n2nc(C(F)(F)F)cc2-c2ccc3c(ccc4ccccc43)c2)cc1 [OSU03012] (first compound 0.5 µM, partner dose 5 µM)	23.2%	26.7%	42.8%	41.3%	68.5%	39.7%	53.6%	46.2%	41.8%	47.8%
C[C@@H](Oc1cc(-c2cnn(C3CCNCC3)c2)cnc1N)c1c(Cl)ccc(F)c1Cl [Crizotinib] + Cc1cc(N2CCOCC2)cc2[nH]c(-c3c(NC[C@@H](O)c4cccc(Cl)c4)cc[nH]c3=O)nc12 [BMS536924] (first compound 1 µM, partner dose 1 µM)	55.7%	82.6%	80.1%	52.7%	81.2%	75.5%	43.3%	101%	37.4%	68.6%
CN1CCN(c2ccc3nc(-c4c(N)c5c(F)cccc5[nH]c4=O)[nH]c3c2)CC1 [Dovitinib] + Cc1ccc(NC(=O)c2cccc(N(C)C)c2)cc1NC(=O)c1ccc(O)cc1 [ZM336372] (first compound 0.5 µM, partner dose 10 µM)	36.1%	36.6%	70.1%	49.5%	66.3%	62%	41.6%	56.1%	56.2%	54.7%
CS(=O)(=O)CCNCc1ccc(-c2ccc3ncnc(Nc4ccc(OCc5cccc(F)c5)c(Cl)c4)c3c2)o1 [lapatinib] + Nc1cccc2c1CN(C1CCC(=O)NC1=O)C2=O [lenalidomide] (first compound 4 µM, partner dose 5 µM)	114%	116%	126%	49.2%	103%	49.6%	88.4%	96%	91.3%	99.4%
CNC(=O)c1cc(Oc2ccc(NC(=O)Nc3ccc(Cl)c(C(F)(F)F)c3)cc2)ccn1 [sorafenib] + OCCn1cc(-c2cnc3nnn(Cc4ccc5ncccc5c4)c3n2)cn1 [PF04217903] (first compound 2 µM, partner dose 5 µM)	88.8%	86.9%	104%	66.1%	97.3%	100%	80.6%	85.5%	70.4%	85%
CNC(=O)c1cc(Oc2ccc(NC(=O)Nc3ccc(Cl)c(C(F)(F)F)c3)cc2)ccn1 [sorafenib] + NCC(=O)Nc1ccc(-n2nc(C(F)(F)F)cc2-c2ccc3c(ccc4ccccc43)c2)cc1 [OSU03012] (first compound 2 µM, partner dose 5 µM)	32.5%	48.3%	46.1%	64.7%	72.8%	90.3%	104%	80.9%	79.6%	56.1%
C[C@@H](Oc1cc(-c2cnn(C3CCNCC3)c2)cnc1N)c1c(Cl)ccc(F)c1Cl [Crizotinib] + C=CCn1c(=O)c2cnc(Nc3ccc(N4CCN(C)CC4)cc3)nc2n1-c1cccc(C(C)(C)O)n1 [MK1775] (first compound 1 µM, partner dose 0.1 µM)	51.2%	74%	67.8%	54.3%	84.1%	70.9%	39.1%	67.7%	40.5%	81.1%
CNC(=O)c1cc(Oc2ccc(NC(=O)Nc3ccc(Cl)c(C(F)(F)F)c3)cc2)ccn1 [sorafenib] + CO[C@@H]1[C@H](N(C)C(=O)c2ccccc2)C[C@H]2O[C@]1(C)n1c3ccccc3c3c4c(c5c6ccccc6n2c5c31)C(=O)NC4 [Midostaurin] (first compound 2 µM, partner dose 0.4 µM)	51.6%	45.4%	59.2%	74.1%	74%	69.2%	37.6%	45.3%	44.8%	56.5%
CNC(=O)c1cc(Oc2ccc(NC(=O)Nc3ccc(Cl)c(C(F)(F)F)c3)cc2)ccn1 [sorafenib] + C=CCNC1=C2C[C@@H](C)C[C@H](OC)[C@H](O)[C@@H](C)/C=C(\C)[C@H](OC(N)=O)[C@@H](OC)/C=C\C=C(/C)C(=O)NC(=CC1=O)C2=O [Tanespimycin] (first compound 2 µM, partner dose 0.01 µM)	57.9%	79.7%	96.3%	61.4%	85.2%	50.4%	24.6%	94.3%	69.6%	72.4%
CS(=O)(=O)CCNCc1ccc(-c2ccc3ncnc(Nc4ccc(OCc5cccc(F)c5)c(Cl)c4)c3c2)o1 [lapatinib] + Cn1c(Nc2ccc(C(F)(F)F)cc2)nc2cc(Oc3ccnc(-c4ncc(C(F)(F)F)[nH]4)c3)ccc21 [CHIR265] (first compound 4 µM, partner dose 0.4 µM)	24.4%	33.3%	56.9%	22.7%	78.3%	14.8%	21.3%	48.5%	45.7%	28.4%
CNC(=O)c1cc(Oc2ccc(NC(=O)Nc3ccc(Cl)c(C(F)(F)F)c3)cc2)ccn1 [sorafenib] + C[C@@H]1CCN(C(=O)CC#N)C[C@@H]1N(C)c1ncnc2[nH]ccc12 [CP690550] (first compound 2 µM, partner dose 5 µM)	101%	83.3%	103%	89.5%	82.9%	141%	105%	110%	89.2%	103%
CS(=O)(=O)CCNCc1ccc(-c2ccc3ncnc(Nc4ccc(OCc5cccc(F)c5)c(Cl)c4)c3c2)o1 [lapatinib] + Nc1ccn([C@@H]2O[C@H](CO)[C@@H](O)C2(F)F)c(=O)n1 [gemcitabine] (first compound 4 µM, partner dose 0.002 µM)	87.1%	76.6%	99%	56.6%	92.6%	57.6%	65.7%	60%	54%	68.5%
CS(=O)(=O)CCNCc1ccc(-c2ccc3ncnc(Nc4ccc(OCc5cccc(F)c5)c(Cl)c4)c3c2)o1 [lapatinib] + O=C(Nc1cccc(Cl)c1)Nc1ncc(CCNc2ncnc3ccsc23)s1 [SNS314] (first compound 4 µM, partner dose 0.004 µM)	40.3%	61.6%	84.5%	50%	65.1%	48.2%	38.1%	46.3%	49.8%	53.5%
